# In all, about 33,000 sequences were measured (“E-score (-0.5 to 0.5)”: median about -0.011, highest 2% from about 0.28 on). This is one part of the list.
# Target: T1, Gcr1 (UniProt P07261)
# T1 sequence: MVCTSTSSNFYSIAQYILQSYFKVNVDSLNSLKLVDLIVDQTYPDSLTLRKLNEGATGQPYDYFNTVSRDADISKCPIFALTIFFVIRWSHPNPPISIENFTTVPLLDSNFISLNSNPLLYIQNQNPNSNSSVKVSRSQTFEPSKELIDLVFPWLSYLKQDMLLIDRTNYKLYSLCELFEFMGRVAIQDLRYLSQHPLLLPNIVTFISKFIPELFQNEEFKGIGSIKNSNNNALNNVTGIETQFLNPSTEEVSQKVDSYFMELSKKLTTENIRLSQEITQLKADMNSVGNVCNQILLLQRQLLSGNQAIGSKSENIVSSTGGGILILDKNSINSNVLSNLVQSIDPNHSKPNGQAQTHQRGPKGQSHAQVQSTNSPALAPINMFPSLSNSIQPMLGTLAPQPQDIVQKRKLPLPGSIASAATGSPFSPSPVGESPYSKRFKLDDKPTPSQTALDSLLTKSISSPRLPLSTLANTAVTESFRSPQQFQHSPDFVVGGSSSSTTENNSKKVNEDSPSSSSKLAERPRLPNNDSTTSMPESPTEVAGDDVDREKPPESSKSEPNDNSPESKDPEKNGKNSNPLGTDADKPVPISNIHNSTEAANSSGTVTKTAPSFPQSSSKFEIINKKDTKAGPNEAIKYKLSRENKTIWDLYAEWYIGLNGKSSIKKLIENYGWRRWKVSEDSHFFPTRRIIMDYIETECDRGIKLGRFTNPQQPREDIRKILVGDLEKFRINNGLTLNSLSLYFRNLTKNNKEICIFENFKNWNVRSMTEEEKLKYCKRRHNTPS
# Assay: PBM E-score (8-mer binding enrichment) (E-score (-0.5 to 0.5)); higher = stronger / more preferred TF binding; most listed sequences are background and not binding sites
# Details: protein concentration: 100 nM; construct: GST-full length
# Summary of the method: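 E-scores (a modified Wilcoxon-Mann-Whitney statistic) were assigned by the Universal PBM Analysis Suite to every ungapped eight-base word pooled with its reverse complement. The input came from universal all-10-mer Agilent arrays made double-stranded by primer extension and probed with GST-tagged yeast transcription factors at about 100-200 nM. Fluorescent anti-GST detected bound protein, and masliner normalised the scans.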
row,Sequence,PBM E-score
1,GGACAGAC,-0.197
2,CGCGACAC,-0.064
3,ATTTTACC,0.0326
4,CGCTTCCA,0.351
5,GTTTGGAA,0.202
6,CACCACCA,0.14
7,AAATGCGG,-0.032
8,CCTTAACG,-0.0277
9,ACATGCGT,-0.107
10,GCCACATA,-0.0272
11,CGCTTACC,-0.244
12,GTTTGAAA,0.111
13,ACAATGTG,0.00324
14,AAAATGAA,0.0635
15,ATCAAGCG,-0.0474
16,CATTTCGC,-0.0546
17,CTTTGCGC,-0.136
18,CCATTGGA,-0.00321
19,GATGTGTA,-0.107
20,CGACGGAC,-0.205
21,CGGGATGC,0.332
22,CGTGATGC,-0.0264
23,CCGACGGC,-0.164
24,GTTACTCA,-0.127
25,CTTGCGCA,0.128

row,Sequence,PBM E-score
1,AGATCTTA,0.0357
2,GCGCATTA,0.0132
3,AATAAGCG,0.0368
4,CCCGTAGC,0.149
5,CTACACAC,-0.0391
6,CAACGTTA,-0.0515
7,GACGGGGC,0.144
8,AATTCACA,-0.183
9,TTACTAAA,0.202
10,CCTAGGCG,0.0568
11,CGAAGTGC,-0.114
12,GTATTCCA,0.261
13,ACATGCTG,-0.106
14,ATACTATG,-0.0271
15,ACCCATTC,-0.0565
16,GGGGGCCA,0.258
17,ATTACTAA,0.132
18,CGTGCAGC,-0.0937
19,CATGATTC,-0.0693
20,ACACAACC,-0.006
21,GTCAGAAA,0.0237
22,AATAAAAC,0.0398
23,GGCAAGTA,-0.0205
24,ATAATGGA,0.196
25,GACCCGTC,-0.0902

row,Sequence,PBM E-score
1,CGGGGGGA,-0.246
2,AACATATA,-0.0814
3,AGGGCTGG,0.0552
4,CTAAGTTC,-0.0278
5,AGAGTTCA,-0.267
6,CATTTGGA,0.172
7,AGACCGCA,0.0808
8,ACTGCGAT,-0.167
9,AATGTTAA,0.111
10,CAAGCAAG,-0.0879
11,CACCGACC,-0.0723
12,TTGCAAAA,0.185
13,AATGTCTA,-0.0034
14,GGAGATCC,0.161
15,TCAAGGGA,-0.231
16,AGGCGCGA,0.138
17,GCTTCCCC,0.341
18,ATCAACCC,0.0738
19,GTCACTAA,0.107
20,ATTACCGC,0.146
21,GGCCTCGA,-0.106
22,CCTGGCAA,-0.0274
23,AGCTCCAA,0.128
24,AACCTACT,0.0293
25,CTCGGAGC,-0.0102

row,Sequence,PBM E-score
1,ACCCAGAG,0.141
2,CCCGCCAG,-0.0181
3,CTACGACA,0.103
4,CGTTAGGC,-0.0314
5,CAAAAAGA,0.209
6,AAGGGTGC,0.155
7,TAGTCTCA,-0.205
8,ACCCCACA,0.0881
9,CATTTCCG,-0.0131
10,CGGTCCGA,-0.00907
11,AAGTGTAG,0.0971
12,ACTCTTAC,-0.00531
13,AATTGAAG,0.0303
14,AGAAGCGC,0.221
15,ACTAGGAG,0.123
16,AATAGGAG,0.217
17,GACGCAGC,0.138
18,TAGAAAGA,0.0699
19,AGATTTGA,0.0916
20,GCGCCCTA,0.319
21,GGGGTTCA,-0.157
22,AGTCCAAC,-0.171
23,ATCTTTCA,0.154
24,AGTCTTGC,-0.12
25,AATAAGTA,0.206

row,Sequence,PBM E-score
1,GCCCAGAC,0.0992
2,ATAGTGAT,0.074
3,CCTGAAAA,0.0934
4,CCGGTCGC,0.0472
5,AAAAAGTG,0.16
6,ACAAGCAC,0.0877
7,GTGTACGA,-0.0709
8,CTGGTTCA,-0.192
9,AGGGGACG,0.141
10,CATACCCA,-0.0403
11,AAGCCCTT,-0.0429
12,GCCGTGGA,0.0942
13,CATTTATA,-0.0203
14,AGAACAAC,-0.167
15,CGACACTA,-0.00768
16,TACCGGCA,0.173
17,CAGTAGGA,-0.118
18,AGGGTTGA,-0.0417
19,AAATCCTT,-0.171
20,CACCGGTC,-0.271
21,ACCGACTG,-0.0894
22,AACAAAAC,-0.0611
23,ATAACAGA,-0.0408
24,CCGGACGA,0.0323
25,CCTTCAGA,0.14

row,Sequence,PBM E-score
1,CACACGCG,0.0832
2,ACGCAAGG,-0.0936
3,AGCGCTAG,-0.288
4,CTACCTCA,-0.107
5,CATGTCCG,-0.271
6,CCCGGGCA,0.187
7,CTCGAATC,0.0437
8,AGACCGGG,-0.0795
9,ACACAAGA,0.264
10,CCATTAGA,0.0419
11,ATCTAATG,0.052
12,CTACATTA,-0.0323
13,CACAAACA,0.044
14,AGAACACC,-0.038
15,ATGTTAGG,0.0142
16,AGAAGTCT,-0.267
17,GAGATTCC,0.363
18,AATCTTCC,-0.105
19,AGTTAGGG,-0.0291
20,CCCGTTCC,0.0167
21,AAACTTAA,0.0811
22,GAGTCCCA,0.313
23,ATTACGAC,-0.0895
24,AGACATGG,-0.248
25,GTTTGTGA,-0.0265

row,Sequence,PBM E-score
1,CCGATAGG,0.0042
2,AACTGAGC,-0.0384
3,ATCAATGG,0.133
4,CGTCATGC,-0.214
5,AGACGTGA,-0.226
6,TTCGCAAA,0.16
7,AACCCCTG,-0.167
8,ATCTAAAC,0.0803
9,GCAACGAA,-0.13
10,AAGGTCTC,-0.175
11,AGAATATC,-0.0145
12,ACGAACGA,-0.0006
13,AGGAGAAT,0.0732
14,AGTTGATC,0.0518
15,ACTGCCAA,0.0668
16,CAATCAGC,0.0177
17,AGTTCATG,-0.0195
18,AACAGGTT,0.201
19,AATTGATG,0.136
20,ATGACGTC,-0.0147
21,CCCAGCGC,-0.0407
22,AATTGCAA,-0.0248

# Source: the supplement of paper PMC3334620
